Laboratory results as given in the supplement of paper PMC10126150.
Values marked as one replicate rest on one cluster of the flow cell; about a third of the high ones do not repeat.

Tested on: ATP
Experiment: switch fluorescence ratio, 500 uM ATP over buffer (Cy3 cluster intensity, sum of 5 cycles each) (fold (ratio)); higher = stronger signal-on switching upon ATP binding; sequences stand for … in TCGTCGGCAGCGTCAGATGTGTATAAGAGACAGTTTTTTTTTTTTTTTTTTTTTTTTT…TC
Conditions: aptamer strand: ATP DNA aptamer (quencher-CACCTGGGGGAGTATTGCGGAGGAAGG + anchor), 100 nM annealed; ATP concentration: 500 uM; one replicate
Summary of the method: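 Values give the fluorescence ratio for each switch-domain sequence, averaged from per-cluster ratios of summed target-cycle to summed buffer-cycle Cy3 intensity. The Cy3-labelled switching-strand clusters sat on a modified Illumina MiSeq flow-cell, were annealed to 100 nM quencher-labelled ATP aptamer, and were imaged in selection buffer, then after 15 min with 500 uM ATP at 22 °C. Five cycles ran with NaOH stripping and re-annealing between them, and clusters outside 100-1000 RFU were excluded.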
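Also: ATP exposure 15 min at 22 °C before imaging.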

In the case of AGAAATCTT, the switch fluorescence ratio is reported as 1.03.
In the case of TTGGATAGCA, the switch fluorescence ratio is reported as 1.02.
In the case of CTGAGCTTGG, the switch fluorescence ratio is reported as 0.981.
With TATGTGTCTG the switch fluorescence ratio was 0.955.
Work on ACTTGGACTT yielded a switch fluorescence ratio of 1.08.
ACATTTCCTA was tested, and the switch fluorescence ratio was 1.02.
AGCGCGAAAA gave a switch fluorescence ratio of 0.968.
AAACTATGCT gave a switch fluorescence ratio of 1.04.
With CGGGGTTGA the switch fluorescence ratio was 1.04.
In the case of GGTCAGTAAT, the switch fluorescence ratio is reported as 0.959.
In the case of ATGTTGAACG, the switch fluorescence ratio is reported as 1.02.
GAATGGCCGA showed a switch fluorescence ratio of 0.936.
With GAGCGGGTGG the switch fluorescence ratio was 1.09.
TTTTGCGGAG showed a switch fluorescence ratio of 1.01.
CTGAGACATT showed a switch fluorescence ratio of 0.999.
TCCGTTGACC was tested, and the switch fluorescence ratio was 1.19.
GGTTGCATAG showed a switch fluorescence ratio of 0.975.
In the case of GGAGAACGCC, the switch fluorescence ratio is reported as 1.07.
In the case of GCTGCACGGA, the switch fluorescence ratio is reported as 1.04.
Sequence TGCATAT has a switch fluorescence ratio of 1.1.
In the case of TTGGAACAAA, the switch fluorescence ratio is reported as 0.996.
TTAATTTCGC gave a switch fluorescence ratio of 1.01.
For TCATTAAGCC, the switch fluorescence ratio was 0.992.
AATATGTCCT showed a switch fluorescence ratio of 1.03.
With CAAAGTACAG the switch fluorescence ratio was 1.18.
Work on TGGTCCGAAG yielded a switch fluorescence ratio of 1.05.
For AAGTTGCATG, the switch fluorescence ratio was 0.974.
Sequence CACAGTGGG has a switch fluorescence ratio of 1.07.
For CATTAGTGTT, the switch fluorescence ratio was 1.02.
Sequence TCACTCTTGG has a switch fluorescence ratio of 0.985.
In the case of CTGATGATGG, the switch fluorescence ratio is reported as 0.989.
Sequence ATTAAATCAT has a switch fluorescence ratio of 0.997.
ACGTATTGAC showed a switch fluorescence ratio of 1.06.
Work on ATTTCTCACG yielded a switch fluorescence ratio of 1.02.
Work on TAAGTCGGCC yielded a switch fluorescence ratio of 1.05.
CATCCAGTGG was tested, and the switch fluorescence ratio was 1.08.
AATCTAGATG was tested, and the switch fluorescence ratio was 1.05.
With CAGGTTACGG the switch fluorescence ratio was 1.03.
TCTGCACTGG was tested, and the switch fluorescence ratio was 1.13.
GAATTTTATT showed a switch fluorescence ratio of 1.04.
GATGGTAGGA was tested, and the switch fluorescence ratio was 1.
With GAATTGATGC the switch fluorescence ratio was 1.06.
For CCTAATTTGA, the switch fluorescence ratio was 0.978.
Sequence TCAATCATGT has a switch fluorescence ratio of 1.03.
For TAAGTGGACT, the switch fluorescence ratio was 1.
In the case of AACACCTGCG, the switch fluorescence ratio is reported as 1.1.
Work on CTGTCCTCGC yielded a switch fluorescence ratio of 1.49.
TCGGAAAGTG gave a switch fluorescence ratio of 1.01.
TTGATCCAT gave a switch fluorescence ratio of 0.975.
In the case of ATAAGTTCAT, the switch fluorescence ratio is reported as 0.986.
With TCAGTGAATC the switch fluorescence ratio was 1.01.
For TATCATCGAC, the switch fluorescence ratio was 1.04.
GAGGTCTTAC was tested, and the switch fluorescence ratio was 1.03.
Sequence GGGCGGGCTC has a switch fluorescence ratio of 1.1.
GGGTATAGTG was tested, and the switch fluorescence ratio was 0.995.
In the case of ATACGTTTTT, the switch fluorescence ratio is reported as 1.
For CATCGATC, the switch fluorescence ratio was 0.991.
CGAAGGCCGG showed a switch fluorescence ratio of 0.899.
CACCGGCTCA gave a switch fluorescence ratio of 1.32.
CGCAAAGAT showed a switch fluorescence ratio of 1.49.
Sequence TGGATTGTAG has a switch fluorescence ratio of 1.02.
In the case of CATTATGGTT, the switch fluorescence ratio is reported as 1.03.
CAGGCGATGC was tested, and the switch fluorescence ratio was 1.28.
GCCATATAAA gave a switch fluorescence ratio of 0.981.
Work on TAAAATTAGG yielded a switch fluorescence ratio of 0.987.
ACGTGCTGCT was tested, and the switch fluorescence ratio was 0.945.
GGAAACCAGT was tested, and the switch fluorescence ratio was 1.01.
TCAGCGAGG showed a switch fluorescence ratio of 1.03.
ACACCTATAT gave a switch fluorescence ratio of 1.13.
CCGACACTGA gave a switch fluorescence ratio of 3.85.
Work on CACAACAAGG yielded a switch fluorescence ratio of 1.02.
GAGCCTCAAT was tested, and the switch fluorescence ratio was 1.08.
With CGAGCTATCT the switch fluorescence ratio was 1.37.
For GGTTCTTGTC, the switch fluorescence ratio was 0.94.
Sequence TTTGACTGCC has a switch fluorescence ratio of 1.3.
TTACATTCCC was tested, and the switch fluorescence ratio was 0.991.
Work on GGAATATTGT yielded a switch fluorescence ratio of 1.02.
Sequence ATCCATGGTG has a switch fluorescence ratio of 1.76.
For ATATAACC, the switch fluorescence ratio was 1.01.
For ATTCTTGGAC, the switch fluorescence ratio was 0.979.
With AAGCCTATTA the switch fluorescence ratio was 0.954.
With ACCTTTCCTA the switch fluorescence ratio was 1.33.
GCCCTTGTCG gave a switch fluorescence ratio of 0.996.
For TGTCGGCCGT, the switch fluorescence ratio was 0.961.
Work on TAATAAAGTG yielded a switch fluorescence ratio of 1.
Sequence GTCTTAACCG has a switch fluorescence ratio of 0.985.
For GGAGACAACA, the switch fluorescence ratio was 1.
With CTTGTGACTG the switch fluorescence ratio was 0.906.
GTCGATAAAA was tested, and the switch fluorescence ratio was 1.
CGGTTCTAGC gave a switch fluorescence ratio of 0.967.
For AGCCGTATTA, the switch fluorescence ratio was 1.01.
TATCAACAGG showed a switch fluorescence ratio of 1.01.
With CGGCTTTCCG the switch fluorescence ratio was 0.992.
In the case of AGGTCGACG, the switch fluorescence ratio is reported as 0.964.
ACGCGGGCAC gave a switch fluorescence ratio of 1.07.
Sequence CGTAACCGT has a switch fluorescence ratio of 0.991.
CTAGCGTCAC gave a switch fluorescence ratio of 1.11.
Sequence CGCTTAATTC has a switch fluorescence ratio of 1.82.
GTCATAAACT showed a switch fluorescence ratio of 1.1.
Work on TTATTATAAA yielded a switch fluorescence ratio of 1.05.
TACTCAGGGT gave a switch fluorescence ratio of 1.19.
Sequence TACGTTATTG has a switch fluorescence ratio of 1.13.
TAGGAGTAG was tested, and the switch fluorescence ratio was 0.948.
Work on TTTTCGAGTG yielded a switch fluorescence ratio of 0.957.
With GGCGGTACGT the switch fluorescence ratio was 0.974.
Work on TAGGGTCTAT yielded a switch fluorescence ratio of 0.982.
In the case of GCTTTGTTAT, the switch fluorescence ratio is reported as 1.01.
For GCACGTTATC, the switch fluorescence ratio was 1.17.
In the case of ATTCACCAGT, the switch fluorescence ratio is reported as 1.06.
GATGGAGCCG was tested, and the switch fluorescence ratio was 1.01.
CATTTGGCA gave a switch fluorescence ratio of 0.995.
Work on AAGCGGGCGG yielded a switch fluorescence ratio of 0.99.
CCTAAGTTGA gave a switch fluorescence ratio of 1.03.
With CCACAATGCG the switch fluorescence ratio was 4.14.
Sequence TTTCTGATAT has a switch fluorescence ratio of 1.04.
TTGCCCCGAG was tested, and the switch fluorescence ratio was 1.2.
In the case of AGGAGCAGCC, the switch fluorescence ratio is reported as 1.02.
With ATTCGCGGCG the switch fluorescence ratio was 0.986.
For TTTGACGGCG, the switch fluorescence ratio was 0.96.
With TAAAACAAGC the switch fluorescence ratio was 1.
Work on TCCTGTTTCG yielded a switch fluorescence ratio of 1.
Sequence TAATATTCCA has a switch fluorescence ratio of 0.98.
For TAGGACCCAG, the switch fluorescence ratio was 1.01.
With AGGATTGGAC the switch fluorescence ratio was 1.01.
GACGTGCGGA gave a switch fluorescence ratio of 1.
With AACCAGGTAC the switch fluorescence ratio was 1.14.
CCGTCGCGTA showed a switch fluorescence ratio of 1.15.
In the case of AGGTGCTGGC, the switch fluorescence ratio is reported as 1.04.
ATAAACGCAC showed a switch fluorescence ratio of 1.8.
TTCCAGCATG was tested, and the switch fluorescence ratio was 1.08.
TGCCTGTCAT was tested, and the switch fluorescence ratio was 1.04.
In the case of TGGAATTAAA, the switch fluorescence ratio is reported as 1.02.
TCTACAAGGC gave a switch fluorescence ratio of 1.07.
With CGCTCATGGT the switch fluorescence ratio was 1.03.
With ATATTTTGCA the switch fluorescence ratio was 1.03.
Sequence TGAGTCATCG has a switch fluorescence ratio of 1.01.
In the case of AAGTTAAAGT, the switch fluorescence ratio is reported as 1.03.
CGATACATAT gave a switch fluorescence ratio of 1.09.
Sequence GCCTGTAATC has a switch fluorescence ratio of 1.09.
CCATACTTGT was tested, and the switch fluorescence ratio was 1.02.
AGATTGGAAC showed a switch fluorescence ratio of 0.987.
With TTGAGCGGGA the switch fluorescence ratio was 0.992.
GTAGGCAAGC gave a switch fluorescence ratio of 1.35.
TTCGCGAGGA was tested, and the switch fluorescence ratio was 1.06.
CCGCCGGGCG was tested, and the switch fluorescence ratio was 0.964.
In the case of GTGCCGATTT, the switch fluorescence ratio is reported as 1.02.
GTAGCCCGGT showed a switch fluorescence ratio of 0.973.
For CTATTTCATC, the switch fluorescence ratio was 0.956.
In the case of TCTTTACATC, the switch fluorescence ratio is reported as 1.27.
For TTCCGATGGT, the switch fluorescence ratio was 1.02.
For CCGTTCGTCC, the switch fluorescence ratio was 1.26.
With TCTACAAGCT the switch fluorescence ratio was 1.02.
With AAAGCGGCCG the switch fluorescence ratio was 0.97.
Work on ATCCCTGGGT yielded a switch fluorescence ratio of 0.989.
For TCGAGACTTG, the switch fluorescence ratio was 1.07.
With GGTGGATCGG the switch fluorescence ratio was 0.989.
Work on TCTTGGCCAA yielded a switch fluorescence ratio of 1.04.
